# Test results from PubChem BioAssay AID624417 (National Center for Advancing Translational Sciences (NCATS), 2012).
# Several values for one entry are separate records, joined by “and”; a condition that tells them apart may be missing. Identical values can stand only once. Among all 410,000 compounds or so, about 6,400 (1.6%) were called active. Inconclusive means that the source gave no clear call. Such entries were picked first, then a sample of the others. Calls come from the whole dose curve; as a rule, active = well fitted inhibition curve with a large enough effect; inconclusive = small, poorly fitted or top-dose-only effect; inactive = no such curve, though single readings can be large or run the other way. Potencies beside an inconclusive call are fits to weak or partial responses and may not hold up. Square brackets hold non-standard residues; d marks the D form. Peptide text beside a SMILES is read from it. * marks the point of attachment. ξ: configuration not given here. ξY = NC(Cc1ccc(O)cc1)C(=O)O; Cbz = O=C(OCc1ccccc1)*; OtBu = CC(C)(C)O*; tBu = CC(C)(C)*
# Target: Glucagon-like peptide 1 receptor (Homo sapiens) (UniProt P43220)
# Sequence of UniProt P43220 (P43220 whole entry, looked up): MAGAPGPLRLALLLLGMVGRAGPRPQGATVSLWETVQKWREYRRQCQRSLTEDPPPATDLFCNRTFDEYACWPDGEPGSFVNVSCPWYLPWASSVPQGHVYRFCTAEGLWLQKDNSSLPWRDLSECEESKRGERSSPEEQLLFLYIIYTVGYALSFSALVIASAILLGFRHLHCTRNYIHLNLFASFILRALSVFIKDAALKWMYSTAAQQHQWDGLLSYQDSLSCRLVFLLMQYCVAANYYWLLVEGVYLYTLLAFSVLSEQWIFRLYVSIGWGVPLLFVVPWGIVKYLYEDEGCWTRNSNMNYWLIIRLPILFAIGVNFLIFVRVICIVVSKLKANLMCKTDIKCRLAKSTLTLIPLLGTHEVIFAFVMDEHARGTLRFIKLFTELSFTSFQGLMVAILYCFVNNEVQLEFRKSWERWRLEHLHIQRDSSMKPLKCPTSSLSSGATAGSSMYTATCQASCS
# Experiment: qHTS of GLP-1 Receptor Inverse Agonists (Inhibition Mode); note: nearly all actives have a fitted effect of over 55% in size
# Conditions: HEK293 GLP-1R CRE-luciferase, luminescence, 24 h, GLP-1R form is constitutively active; activity change, negative = inhibition: at 38.3 µM (top of the series) unless noted
# In short: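 Constitutively active GLP-1R drives a cAMP-responsive luciferase in stably transfected HEK293 cells; test compounds are added after overnight (12 h) attachment and left 24 hr, and signal loss in luminescence marks inhibition.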
# % is set by controls: 0 for no effect and ±100 for the full control effect; potency is the fitted concentration of half-maximal effect; tags give direction and shape of the fitted curve.
Structure (SMILES),Potency,"activity change, negative = inhibition"
OC1(c2ccc(F)cc2)CCN(Cc2ccccc2)C1 (centres undefined),inactive,
Cc1cc(NC(=O)NC(=O)c2ccccc2NC(=O)CN(C)C)ccc1Oc1ncc(Br)cn1,"inconclusive: 4.47 µM [inhibitor, partial curve]",
OCCC1CN(Cc2ccccc2O)CCN1CCCc1ccccc1 (centres undefined),"inconclusive: 28.2 µM [inhibitor, single point]",
CN(CCCC1CCCC1)C(=O)CC1C(=O)NCCN1Cc1cccc(F)c1F (centres undefined),"inconclusive: 28.2 µM [inhibitor, single point]",
CC(=O)N(c1ccccc1C)S(=O)(=O)c1ccc(Cl)cc1,"inconclusive: 28.2 µM [inhibitor, single point]",
Cc1ccc(S(=O)(=O)N2CCN(CCNC(=O)C(=O)NCc3ccccc3)CC2)cc1,"inconclusive: 22.4 µM [inhibitor, partial curve, poor fit]",
CC1(OC(=O)CCc2ccccc2)C(=O)C=C2C=C(c3ccc(C#N)cc3)N(C3CCCC3)C=C2C1=O (centres undefined),"inconclusive: 22.4 µM [inhibitor, single point]",
CCCCN(c1ccc(C(=O)OC)cc1)S(=O)(=O)c1ccccc1,"inconclusive: 28.2 µM [inhibitor, single point]",
C#CCOc1ccc(/C=C2\SC(=S)N(Cc3cccnc3)C2=O)cc1,"inconclusive: 2.51 µM [inhibitor, full curve, poor fit]",
CCOc1ccc(S(=O)(=O)Nc2cccc(C(=O)NCCCN3CCOCC3)c2)cc1,"inconclusive: 14.1 µM [inhibitor, single point]",
CCc1cc2c(COC(=O)CCNS(=O)(=O)c3cccc(C(F)(F)F)c3)cc(=O)oc2cc1O,"inconclusive: 5.62 µM [inhibitor, partial curve]",
C(=N\Nc1ccccc1)/c1ccc(N2CCOCC2)cc1,"inconclusive: 28.2 µM [inhibitor, single point]",
COc1ccc(CN2C(=O)C(CC(=O)NC(c3ccccc3)c3ccccc3)CC(C(=O)N(C(C)C)C(C)C)=C2C)cc1 (centres undefined),"inconclusive: 11.2 µM [inhibitor, partial curve, poor fit]",
COc1ccc(NC(=O)Nc2ncccc2C)cc1,inactive,
O=C(Nc1cccc(Cl)c1)Nc1ccc2c(c1)OCO2,"inconclusive: 22.4 µM [inhibitor, single point]",
COC(=O)c1c(NC(=O)C2CCCCC2)sc2c1CCN(C(C)C)C2,"inconclusive: 28.2 µM [inhibitor, single point]",
CC(C)c1ccc(CC(=O)N2CCC2(C)C(=O)Nc2ccc3c(c2)OCCO3)cc1 (centres undefined),"inconclusive: 14.1 µM [inhibitor, partial curve, poor fit]",
N=c1c2ccccc2nc2n1CCCCCCCCCCC2,"inconclusive: 1.26 µM [inhibitor, full curve, poor fit]",
COc1ccc(NC(=O)c2sc3nc4c(cc3c2N)CN(Cc2ccccc2)CC4)c(OC)c1,"inconclusive: 28.2 µM [inhibitor, single point]",
CC(C)C(=O)NC(=S)Nc1ccc(S(=O)(=O)Nc2ccccc2)cc1,"inconclusive: 28.2 µM [inhibitor, single point]",

Structure (SMILES),Potency,"activity change, negative = inhibition"
Cc1ccc(C)c(CN2C(=O)c3ccccc3S(=O)(=O)c3ccc(C(=O)OCC4CCCO4)cc32)c1 (centres undefined),"inconclusive: 28.2 µM [inhibitor, single point]",
COc1ccc(NC(=O)Cn2c(SCc3ccc(C)cc3)nc3cccnc32)cc1OC,"inconclusive: 5.62 µM [inhibitor, full curve, poor fit]",
CCOC(=O)CC(=O)NC(C)(C)CCCCC(C)(C)NC(=O)CC(=O)OCC,inactive,
COc1ccc(C(=O)OCC(=O)NC23CC4CC(CC(C4)C2)C3)c(O)c1,"inconclusive: 7.08 µM [inhibitor, partial curve, poor fit]",
OCCC1CN(Cc2nc(-c3ccccc3)cs2)CCN1Cc1ccc(F)cc1 (centres undefined),"inconclusive: 10 µM [inhibitor, partial curve, poor fit]",
Cc1nn(Cc2ccccc2)c(Cl)c1/C=C/C(=O)OCC(=O)NC(C)C(C)C (centres undefined),"inconclusive: 6.31 µM [inhibitor, partial curve]",
COc1ccc(-c2noc(CNC(=O)C(C)Oc3ccccc3)n2)cc1 (centres undefined),"inconclusive: 11.2 µM [inhibitor, partial curve, poor fit]",
COc1ccc(OCCN2CCC(C(=O)NC(c3ccc(C)cc3)c3ccccn3)CC2)cc1 (centres undefined),"inconclusive: 12.6 µM [inhibitor, single point]",
O=C(CSc1nc2ccccc2c(=O)n1Cc1ccco1)N1CCN(c2ccccc2)CC1,"inconclusive: 22.4 µM [inhibitor, single point]",
O=C1Nc2ccccc2Oc2cc(Oc3ccccc3)ccc21,inactive,
COc1ccc(Cl)cc1Cn1c(C)c(C(=O)NCc2ccc(C#N)cc2)sc1=O,"inconclusive: 17.8 µM [inhibitor, single point]",
CN1CCN(C(=S)c2cn(Cc3ccc(Br)cc3)c3ccccc23)CC1,"inconclusive: 28.2 µM [inhibitor, single point]",
Cn1cc(CN2CCC(C(=O)NC(c3ccc(F)cc3)c3ccc4ccccc4n3)CC2)c2ccccc21 (centres undefined),"inconclusive: 28.2 µM [inhibitor, single point]",
Clc1cccc(CON/C=N/c2ncnc3sccc23)c1,"inconclusive: 10 µM [inhibitor, single point]",
CCOP(=O)(Nc1ccc2oc(=O)c3ccccc3c2c1)OCC,inactive,
O=[N+]([O-])c1cc(S(=O)(=O)Nc2ccccc2)ccc1N1CCN(c2ccccc2)CC1,"inconclusive: 14.1 µM [inhibitor, single point]",
CC1(C(=O)Nc2ccc(Cl)c(C(F)(F)F)c2)Cc2c(-c3ccc4c(c3)OCO4)ccnc2O1 (centres undefined),"inconclusive: 28.2 µM [inhibitor, single point]",
Cc1ccccc1NC(=S)NC(NC(=O)c1ccccc1C)C(Cl)(Cl)Cl (centres undefined),"inconclusive: 11.2 µM [inhibitor, partial curve, poor fit]",
CC(=O)Nc1ccc(S(=O)(=O)N2CCN(C(C)CCc3ccccc3)CC2)cc1 (centres undefined),"inconclusive: 28.2 µM [inhibitor, single point]",
O=C(c1ccco1)c1nnn(Cc2ccccc2)c1-c1ccccc1,"inconclusive: 6.31 µM [inhibitor, partial curve, poor fit]",

Structure (SMILES),Potency,"activity change, negative = inhibition"
Cc1cc(C)n(-c2nnc(Nc3ccc(C)c(C)c3)c3ccccc23)n1,"inconclusive: 11.2 µM [inhibitor, partial curve, poor fit]",
CC(C)=CCCC(C)CN1CCC(N2CCC(C(=O)NC(C)C)CC2)CC1 (centres undefined),"inconclusive: 5.62 µM [inhibitor, partial curve]",
O=C(Nc1ccc2c(c1)OCCO2)c1ccccc1,,inconclusive: -59.1% [inhibitor]
CCOc1ccccc1NC(=O)c1cccc(S(=O)(=O)N(Cc2ccccc2)c2ccccc2OC)c1,"inconclusive: 3.55 µM [inhibitor, full curve, poor fit]",
Nc1nc(-c2ccccc2)nc2nonc12,inactive,
O=C(CSc1nc(C2CCCCC2)nc2ccccc12)NCc1ccco1,"inconclusive: 8.91 µM [inhibitor, single point]",
C[C@H](O)[C@@H]1CN2CCc3c([nH]c4ccccc34)[C@@H]2C[C@@H]1N(C)C(=O)Nc1ccc(F)cc1,"inconclusive: 11.2 µM [inhibitor, partial curve, poor fit]",
CN(c1ccccc1)S(=O)(=O)c1ccc(NC(=O)c2nc(S(C)(=O)=O)ncc2Cl)cc1,"inconclusive: 28.2 µM [inhibitor, single point] and inconclusive: 10 µM [inhibitor, partial curve, poor fit]",
CCN1CCN(CCNC(=O)c2ccc3c(c2)N(Cc2ccc(F)cc2)C(=O)c2ccccc2S3=O)CC1 (centres undefined),"inconclusive: 8.91 µM [inhibitor, partial curve, poor fit]",
Cc1cc(O)c(C(c2cccc(F)c2)N2CCN(c3ccccc3)CC2)c(=O)n1Cc1ccco1 (centres undefined),"inconclusive: 11.2 µM [inhibitor, partial curve, poor fit]",
COc1ccc2[nH]c(=O)c(C(c3nnnn3CC3CCCO3)N3CCc4ccccc4C3)cc2c1 (centres undefined),inactive,
CCOc1ccc(/C=C/C(=O)c2ccccc2)cc1OC,"inconclusive: 3.55 µM [inhibitor, single point]",
Cc1ccccc1COC(=O)c1cc([N+](=O)[O-])ccc1N1CCOCC1,"inconclusive: 28.2 µM [inhibitor, single point]",
CC(C)(C)OC(=O)C(Cc1ccc(OC(C)(C)C)cc1)NC(=O)CNC(=O)CNC(=O)OCc1ccccc1 (stereo not drawn) (Cbz-Gly-Gly-[ξY](tBu)-OtBu),"inconclusive: 2.24 µM [inhibitor, partial curve, poor fit]",
COc1ccc(-c2ccc(CN3C(C(C)C)C(=O)N(Cc4cn(CC5CCCCC5)nn4)CCS3(=O)=O)cc2)cn1 (centres undefined),inactive,
Cc1cc(NC(=O)CCN2CCN(C/C=C/c3ccccc3)CC2)ccc1Br,"inconclusive: 3.16 µM [inhibitor, single point]",
Cc1ccc(C(=O)NCC(c2ccc3c(c2)OCO3)N2CCOCC2)cc1C (centres undefined),inactive,
COc1ccc(CCNC(=O)c2ccc(Cl)c(S(=O)(=O)N(C)c3ccccc3)c2)cc1,"inconclusive: 10 µM [inhibitor, partial curve, poor fit]",
O=C(CSc1cn(CC(=O)N2CCCC2)c2ccccc12)Nc1ccc(Cl)cc1,"inconclusive: 22.4 µM [inhibitor, single point]",
